Measured values taken from article PMC4336329 (PLoS ONE, 2015).
Screen size: about 310,000 compounds; about 14,000 (4.5%) showed an effect of 50% or more. The effect is printed as a negative number. Some of the results follow.
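Note: peak tail current of the secondary pulse compared with the same well before compound.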

What follows are compounds tested against human ether-à-go-go-related gene (hERG) potassium channel (human, UniProt Q12809) (assay: primary screen, population patch clamp on CHO cells stably expressing hERG).
Sequence of human ether-à-go-go-related gene (hERG) potassium channel (Q12809 whole entry, looked up): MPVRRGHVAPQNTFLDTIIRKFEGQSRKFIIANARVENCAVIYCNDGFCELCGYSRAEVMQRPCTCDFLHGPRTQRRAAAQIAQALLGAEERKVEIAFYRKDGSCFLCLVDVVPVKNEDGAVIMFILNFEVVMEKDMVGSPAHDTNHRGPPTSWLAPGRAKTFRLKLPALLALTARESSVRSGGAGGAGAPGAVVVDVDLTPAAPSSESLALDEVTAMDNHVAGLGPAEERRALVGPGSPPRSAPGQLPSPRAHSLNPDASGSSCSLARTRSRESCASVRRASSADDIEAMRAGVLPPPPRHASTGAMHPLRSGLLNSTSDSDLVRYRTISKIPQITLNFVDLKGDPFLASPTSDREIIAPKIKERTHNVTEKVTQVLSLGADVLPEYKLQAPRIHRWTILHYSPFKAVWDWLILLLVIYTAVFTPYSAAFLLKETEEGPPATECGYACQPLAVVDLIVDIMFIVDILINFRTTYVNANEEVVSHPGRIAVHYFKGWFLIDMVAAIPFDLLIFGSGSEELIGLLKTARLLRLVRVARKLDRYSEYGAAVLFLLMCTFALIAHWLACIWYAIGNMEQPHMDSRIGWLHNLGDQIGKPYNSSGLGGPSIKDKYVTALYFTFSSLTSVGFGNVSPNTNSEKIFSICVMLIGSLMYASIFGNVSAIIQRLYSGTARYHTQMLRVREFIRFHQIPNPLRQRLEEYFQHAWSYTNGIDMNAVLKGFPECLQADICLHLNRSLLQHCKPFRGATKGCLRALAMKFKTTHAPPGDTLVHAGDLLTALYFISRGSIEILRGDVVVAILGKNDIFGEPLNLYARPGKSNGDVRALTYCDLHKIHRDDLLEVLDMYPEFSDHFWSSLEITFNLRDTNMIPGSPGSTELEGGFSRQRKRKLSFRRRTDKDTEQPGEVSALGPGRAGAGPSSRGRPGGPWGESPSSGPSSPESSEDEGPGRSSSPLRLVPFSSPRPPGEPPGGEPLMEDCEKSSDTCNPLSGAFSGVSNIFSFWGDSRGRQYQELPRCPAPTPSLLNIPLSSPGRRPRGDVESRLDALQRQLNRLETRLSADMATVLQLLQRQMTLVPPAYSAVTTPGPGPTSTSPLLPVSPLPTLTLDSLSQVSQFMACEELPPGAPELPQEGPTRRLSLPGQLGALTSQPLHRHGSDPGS
With `Cc1ccc(C)c2[nH]c(=O)c(CCNC(=O)CC(C)C)cc12` the “hERG current change (%, negative = inhibition) at 10uM” value was 0.124%.
For `Cc1ccc(C)c2[nH]c(=O)c(C(c3nnnn3CCc3ccccc3)N3CCOCC3)cc12` (stereo not drawn), the “hERG current change (%, negative = inhibition) at 10uM” value was -59.4%.
With `CCCCCn1c2nc3ccccc3nc2c2c(=O)n(CC(C)C)cnc21` the “hERG current change (%, negative = inhibition) at 10uM” value was 1.58%.
`Cl.O.O=C(c1ccc(F)cc1)C1CCN(CCn2c(=S)[nH]c3ccccc3c2=O)CC1` was tested, and the “hERG current change (%, negative = inhibition) at 10uM” value was -68.9%.
`Cc1ccc(C(=O)N2CCCCC2C(=O)O)o1` (stereo not drawn) was tested, and the “hERG current change (%, negative = inhibition) at 10uM” value was 2.84%.
With `CCCOc1ccc(C(=O)NNC(=S)NC(=O)c2ccccc2)cc1` the “hERG current change (%, negative = inhibition) at 10uM” value was 23.4%.
For `COc1c(C)cc(S(=O)(=O)N2CCOCC2)c(C)c1C`, the “hERG current change (%, negative = inhibition) at 10uM” value was 21.9%.
In the case of `N#Cc1cccc(NS(=O)(=O)c2ccccc2Cl)c1`, the “hERG current change (%, negative = inhibition) at 10uM” value is reported as 2.57%.
`CCCCOc1ccc(C(=O)Oc2ccc(C)nc2)cc1` was tested, and the “hERG current change (%, negative = inhibition) at 10uM” value was 13.4%.
For `CCCCn1c(O)c(C(CC)=Nc2cccc(C(=O)O)c2)c(=O)[nH]c1=O`, the “hERG current change (%, negative = inhibition) at 10uM” value was 11.5%.
`CCCCCCCC(=O)OCC(COC(=O)CCCCCCC)OC(=O)CCCCCCC` was tested, and the “hERG current change (%, negative = inhibition) at 10uM” value was 11.7%.
In the case of `O=C(Cc1cccs1)N1CCN(S(=O)(=O)c2cccc([N+](=O)[O-])c2)CC1`, the “hERG current change (%, negative = inhibition) at 10uM” value is reported as -2.15%.
`CC1CCN(C(=O)CN(C2CCCCC2)S(C)(=O)=O)CC1` was tested, and the “hERG current change (%, negative = inhibition) at 10uM” value was 1.15%.
`N#Cc1nc(-c2ccc(OCc3ccccc3)cc2)oc1NCCCn1ccnc1` was tested, and the “hERG current change (%, negative = inhibition) at 10uM” value was -1.96%.
In the case of `CCOC(=O)C1CCN(C(=O)COc2cc(C)c(Br)cc2C)CC1`, the “hERG current change (%, negative = inhibition) at 10uM” value is reported as -54.7%.
`COc1ccc(OC)c(NC(=O)C2C3CCC(O3)C2C(=O)O)c1` (stereo not drawn) was tested, and the “hERG current change (%, negative = inhibition) at 10uM” value was 4.75%.
In the case of `CC(=O)c1cccc(NC(=O)CSc2ccc(-c3sc(C)nc3C)nn2)c1`, the “hERG current change (%, negative = inhibition) at 10uM” value is reported as 7.68%.
With `CCC1=NN(C(=O)Cc2ccc(OC)c(OC)c2)C(O)(C(F)(F)F)C1` (stereo not drawn) the “hERG current change (%, negative = inhibition) at 10uM” value was 12.5%.
In the case of `O=C(CCN1C(=O)C2C3C=CC(C3)C2C1=O)N1CCN(c2ccccn2)CC1` (stereo not drawn), the “hERG current change (%, negative = inhibition) at 10uM” value is reported as -5.28%.
With `O=C(N/N=C/c1cccnc1)c1cccc(Br)c1` the “hERG current change (%, negative = inhibition) at 10uM” value was 10.4%.
`CCOC(=O)COn1c2c(c3c4no[n+]([O-])c4ccc31)CCCC2` was tested, and the “hERG current change (%, negative = inhibition) at 10uM” value was 3.89%.
In the case of `CCOc1cccc(C(=O)Nc2ccc(N(CC)CC)cc2)c1`, the “hERG current change (%, negative = inhibition) at 10uM” value is reported as -11.7%.
In the case of `CCS(=O)(=O)Nc1ccc(C2=NN(C(C)=O)C(c3cccs3)C2)cc1` (stereo not drawn), the “hERG current change (%, negative = inhibition) at 10uM” value is reported as -3.58%.
With `Cc1nnc(N/N=C/c2ccc(-c3ccc(Br)cc3)o2)n1N.Cl` the “hERG current change (%, negative = inhibition) at 10uM” value was -17.6%.
For `COc1ccccc1OCCn1nnc2ccccc21`, the “hERG current change (%, negative = inhibition) at 10uM” value was 2.87%.
In the case of `CCN(C(=O)COC(=O)c1ccc(C)c(S(=O)(=O)N2CCOCC2)c1)C1CCS(=O)(=O)C1` (stereo not drawn), the “hERG current change (%, negative = inhibition) at 10uM” value is reported as 1.32%.
In the case of `CCOc1cc(N2CCOCC2)c(OCC)cc1NC(=O)CN1CCCC1`, the “hERG current change (%, negative = inhibition) at 10uM” value is reported as 6.63%.
`CCCc1nnc(NC(=O)Cn2cnc3ccccc3c2=O)s1` was tested, and the “hERG current change (%, negative = inhibition) at 10uM” value was 12%.
With `N#CC(C#N)=Cc1ccc(N2CCOCC2)cc1` the “hERG current change (%, negative = inhibition) at 10uM” value was -10.7%.
In the case of `N#Cc1cc2c(nc1SCc1nc3ccccc3[nH]1)CCC2`, the “hERG current change (%, negative = inhibition) at 10uM” value is reported as 1.99%.
In the case of `CN(C)c1ccc(/C=C/C(=O)c2ccc3c(c2)OCO3)cc1`, the “hERG current change (%, negative = inhibition) at 10uM” value is reported as 14.4%.
In the case of `COc1ccc(C2(C)NC(=O)N(CC(=O)NCc3ccccc3F)C2=O)cc1` (stereo not drawn), the “hERG current change (%, negative = inhibition) at 10uM” value is reported as 23.7%.
With `CCCCn1c(N)c(N(CC(C)C)C(=O)Cn2c(=O)oc3ccccc32)c(=O)[nH]c1=O` the “hERG current change (%, negative = inhibition) at 10uM” value was 20%.
`Cc1cc(C)c2nc(N)sc2c1` was tested, and the “hERG current change (%, negative = inhibition) at 10uM” value was 7.03%.
`O=C(Cc1ccccc1)NNC(=O)C1CCCC1` was tested, and the “hERG current change (%, negative = inhibition) at 10uM” value was 2.14%.
In the case of `COc1ccc(S(=O)(=O)N2CCC(C(=O)N3CCN(C)CC3)CC2)cc1OC`, the “hERG current change (%, negative = inhibition) at 10uM” value is reported as 17.3%.
For `Cc1cc(C)c(NC(=O)c2cc(C(=O)O)ccc2C(=O)O)c([N+](=O)[O-])c1`, the “hERG current change (%, negative = inhibition) at 10uM” value was 14.1%.
`COCCOCC(=O)Nc1ccc(S(=O)(=O)Nc2cc(C)nc(C)n2)cc1` was tested, and the “hERG current change (%, negative = inhibition) at 10uM” value was 21.3%.
`Cc1ccc(C(=O)N/N=c2\oc3ccccc3cc2C(N)=O)cc1` was tested, and the “hERG current change (%, negative = inhibition) at 10uM” value was -17.7%.
With `O=C(/C=C/c1ccccc1Cl)Nc1ccc(S(=O)(=O)Nc2ncccn2)cc1` the “hERG current change (%, negative = inhibition) at 10uM” value was 30.3%.
With `CC(C)Sc1nc2c([nH]c3ccccc32)c(=O)n1C` the “hERG current change (%, negative = inhibition) at 10uM” value was 17%.
In the case of `Cc1ccc(S(=O)(=O)Oc2ccccc2N2C(=O)C3C4CCC(C4)C3C2=O)cc1` (stereo not drawn), the “hERG current change (%, negative = inhibition) at 10uM” value is reported as -17.5%.
In the case of `COc1ccc(N2CCN(c3nc(Cl)nc(N4CCOCC4)n3)CC2)cc1`, the “hERG current change (%, negative = inhibition) at 10uM” value is reported as 0.926%.
For `CCn1c(C(O)c2cccc(OC)c2OC)nc2ccccc21` (stereo not drawn), the “hERG current change (%, negative = inhibition) at 10uM” value was -12.2%.
For `NC(=O)c1ccc(NC(=O)C2COc3ccccc3O2)cc1` (stereo not drawn), the “hERG current change (%, negative = inhibition) at 10uM” value was -0.781%.
